This passage reports binding signal results from publication PMC7819943, “Rice protein-binding microarrays: a tool to detect cis-acting elements near promoter regions in rice”.

The other results are listed elsewhere or left out.

This assay concerns the target T1, OsWOX13 (Oryza sativa, UniProt Q5QMM3 1-267).
T1 sequence: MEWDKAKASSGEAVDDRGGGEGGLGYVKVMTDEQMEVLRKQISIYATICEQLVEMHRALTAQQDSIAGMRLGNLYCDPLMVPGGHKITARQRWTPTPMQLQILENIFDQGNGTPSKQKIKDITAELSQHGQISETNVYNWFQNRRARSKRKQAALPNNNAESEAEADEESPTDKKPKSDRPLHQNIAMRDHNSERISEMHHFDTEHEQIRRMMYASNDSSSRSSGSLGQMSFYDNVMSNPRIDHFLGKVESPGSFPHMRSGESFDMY
The assay is described as follows: protein-binding microarray (RPBM); PBS, 2% BSA, 51.3 ng/ul salmon testes DNA, 50 uM zinc acetate, 200 nM TF, 25 C, 1 h; high values mean tight binding. The conditions noted are these: protein: recombinant; tags: N-terminal polyhistidine and DsRed monomer fusion (pET32a); label: CyDye5-dUTP incorporated in the synthesized complementary strand; 3' TTTTT single-stranded linker to array surface; dsDNA, one strand shown. In short, it runs like this: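 Transcription factors were each fused at the N-terminus to a polyhistidine tag plus DsRed and expressed in E. coli BL21-CodonPlus before Ni–NTA purification. Binding to a double-stranded custom Agilent array was carried out with 200 nM protein at 25 °C for 1 h in PBS, 2% BSA, salmon testes DNA and 50 µM zinc acetate. The binding signal is per-feature fluorescence intensity, in arbitrary units, on an Axon 4000B scanner.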
“ATCATATAATGATCAATCTGTGAAGAAGGAAGTACAATCCCGGAGTCACCTAGTGCAG”: the binding signal was 6930 fluorescence intensity (a.u.).

Consider “ATAAGGCTATTGACTTGATTGATGAAGCAGGATCTCGTGTCGGAGTCACCTAGTGCAG”, for which the binding signal is 30100 fluorescence intensity (a.u.).

For “ATAGAAATCAATCTTGATTTGTTGTATGCATGTGGGGCATCGGAGTCACCTAGTGCAG”, the binding signal is 32600 fluorescence intensity (a.u.). Then “AACCAAAATGGGGAATCAATCAAGCAGCTGTTTGCTAGCTCGGAGTCACCTAGTGCAG”, with 15100 fluorescence intensity (a.u.); and “AAAACCAATGATAATCATGTATGATTTTAAAATCTCAATGCGGAGTCACCTAGTGCAG”, with 10900 fluorescence intensity (a.u.). Then “CTGATCCTTCTTAATCCAATCACTGGCGAACAGATTGCATCGGAGTCACCTAGTGCAG”, with 9250 fluorescence intensity (a.u.); and “TCAGCTAATCAGCTAACTGGTCCTTTTCCTACTTCCCTTGCGGAGTCACCTAGTGCAG”, with 8010 fluorescence intensity (a.u.).

Regarding “ATGAATTGATGAAAGCTTCAGTGCAGTTGATTCCCAAGTACGGAGTCACCTAGTGCAG”, the binding signal was 14600 fluorescence intensity (a.u.). With “GTAGATAGATGGCACATTGGCAGTGATGGCTGTGTACAGTCGGAGTCACCTAGTGCAG”, the binding signal was 8260 fluorescence intensity (a.u.). “GTGATGAATTAATGACAAAGTCTCCCTTGGCGGCAAGCCACGGAGTCACCTAGTGCAG”: the binding signal was 10200 fluorescence intensity (a.u.). Then “GTGATGGACAAATTGCTAGTCACAAAGTATAGCAAAGTTACGGAGTCACCTAGTGCAG”, with 9420 fluorescence intensity (a.u.).

“CATGACATACAATTTATCAGATCCAATTTTAGGATTATTCCGGAGTCACCTAGTGCAG”: the binding signal is 10900 fluorescence intensity (a.u.). Regarding “GGAAGACAATTTTACCATAATTTGGGTGGAGGGGTGTTGGCGGAGTCACCTAGTGCAG”, the binding signal is 3660 fluorescence intensity (a.u.). Then “AAATTTATGTAATTATAATTTATTTTATTATGACTTGATTCGGAGTCACCTAGTGCAG”, with 24300 fluorescence intensity (a.u.); and “TCAACAAATGCACAATCAACAACAAACAGTTCTTGCAATTCGGAGTCACCTAGTGCAG”, with 4050 fluorescence intensity (a.u.). Turning to “GCACCTGATTGGTCCGTCGCGTGCTCCCACGGATCGCCCCCGGAGTCACCTAGTGCAG”, the binding signal was 6790 fluorescence intensity (a.u.). Regarding “CCCTGATTTCTCCCAAACCAAAACCAACCAAACCTCGCGGCGGAGTCACCTAGTGCAG”, the binding signal is 17200 fluorescence intensity (a.u.). Then “GCGAAACAATTCTGATTTACTTGATTTAACATGCAACATTCGGAGTCACCTAGTGCAG”, with 14800 fluorescence intensity (a.u.); and “TTAAAATTCAATCAATCATATGTTAATACCACATAATTTTCGGAGTCACCTAGTGCAG”, with 10400 fluorescence intensity (a.u.); and “AATTAAGATTGGTATTCTTATGCTTACCATGTTATCTTTTCGGAGTCACCTAGTGCAG”, with 6720 fluorescence intensity (a.u.). Then “CGAAATTGAAGCGCGTATGACCAAAGTTTGCTACTCGTGCCGGAGTCACCTAGTGCAG”, with 31000 fluorescence intensity (a.u.). Then “CCCATTGCCTTCCTTCTTGCCCAATTCACTCCACCATACTCGGAGTCACCTAGTGCAG”, with 4870 fluorescence intensity (a.u.); and “TGGATCCTGATTGGATCCTGATTGGCGTTGCGGCCGTGTCCGGAGTCACCTAGTGCAG”, with 65000 fluorescence intensity (a.u.); and “GACTTATAATTAGTCTAAACAACAAAGCCCTAAGCAGTAACGGAGTCACCTAGTGCAG”, with 7840 fluorescence intensity (a.u.). As for “ACAACCCATTCATATGATCAATTGATCATGTTATTACAAGCGGAGTCACCTAGTGCAG”, the binding signal is 3830 fluorescence intensity (a.u.). Regarding “AACTTAATTTTGACATTGATTTTGAGATATTTTCAATGTACGGAGTCACCTAGTGCAG”, the binding signal is 27200 fluorescence intensity (a.u.).

Take “TGCAAAATTTCTATGATTGCTAACCTATCCTGCTGGATTTCGGAGTCACCTAGTGCAG”: the binding signal is 28900 fluorescence intensity (a.u.). Regarding “TGTCACAAATCTAATGGTATAATTAGTTCATAGTTCGGATCGGAGTCACCTAGTGCAG”, the binding signal is 8340 fluorescence intensity (a.u.). The result for “GAAAATTATTTTCCTATCCCATTATCCAAACAATGCCTAACGGAGTCACCTAGTGCAG” reads 5700 fluorescence intensity (a.u.); that for “ATCAGGGCCTTAATTAACTCCAAACCTGATAGAGTGGCAGCGGAGTCACCTAGTGCAG”, 6480 fluorescence intensity (a.u.); that for “TCGCAGATAATTATGGCCCCGTTAATATGGGGAATAGGTCCGGAGTCACCTAGTGCAG”, 14800 fluorescence intensity (a.u.).

As to “TTTCAAATTAAATTTTGGCAGCGGCTTAATTATAAGCTAGCGGAGTCACCTAGTGCAG”, the binding signal is 12600 fluorescence intensity (a.u.).

In the case of “GCTTAATTGATTAATTTGCTGGACGAGGAATCTTCTATGTCGGAGTCACCTAGTGCAG”, the binding signal is 64600 fluorescence intensity (a.u.). Then “TAGTGTAATTTAACACTTAATTAGCCACATTTGTTACACACGGAGTCACCTAGTGCAG”, with 61900 fluorescence intensity (a.u.). As to “GCATCTACTCTGTGCCAATCACCGGGCATATATACATGGTCGGAGTCACCTAGTGCAG”, the binding signal was 5930 fluorescence intensity (a.u.). For “ATTGCAAATTGGACACTAGAGAATGTGGTACCAATTCGGGCGGAGTCACCTAGTGCAG”, the binding signal was 11800 fluorescence intensity (a.u.). With “TTTCCAATCTATTGCTATACTAGTATGACAACTCAATCTCCGGAGTCACCTAGTGCAG”, the binding signal is 6860 fluorescence intensity (a.u.). The result for “TGAGCTATTAGATTGGTTATAGATGAATTGAAGTTAGTAGCGGAGTCACCTAGTGCAG” reads 14100 fluorescence intensity (a.u.). The result for “AATACTAGTAATTAAGTTAACTCCGTTCCTGTCATACCAACGGAGTCACCTAGTGCAG” reads 11100 fluorescence intensity (a.u.). Then “GCTCTAATTGGCTATCTGTACATCTGTTTGTTATTCTAATCGGAGTCACCTAGTGCAG”, with 37100 fluorescence intensity (a.u.); and “AAAATCACTGATAGATATGTGATTTTCGTTTTGAGGGTCTCGGAGTCACCTAGTGCAG”, with 40900 fluorescence intensity (a.u.). On to “AGTTAATAACAAGAAATTATTCATTTAAATTTAGGGCAAACGGAGTCACCTAGTGCAG”, for which the binding signal is 9460 fluorescence intensity (a.u.).
